Measurements as given in the supplement of paper PMC10126150.
Sequences with one replicate were seen in a single cluster, so their values are uncertain.

Tested on: ATP
Assay: switch fluorescence ratio, 500 uM ATP over buffer (Cy3 cluster intensity, sum of 5 cycles each) (fold (ratio)); higher = stronger signal-on switching upon ATP binding; sequences stand for … in TCGTCGGCAGCGTCAGATGTGTATAAGAGACAGTTTTTTTTTTTTTTTTTTTTTTTTT…TC
Settings: aptamer strand: ATP DNA aptamer (quencher-CACCTGGGGGAGTATTGCGGAGGAAGG + anchor), 100 nM annealed; ATP concentration: 500 uM; one replicate
Summary of the method: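 Values give the fluorescence ratio for each switch-domain sequence, averaged from per-cluster ratios of summed target-cycle to summed buffer-cycle Cy3 intensity. The Cy3-labelled switching-strand clusters sat on a modified Illumina MiSeq flow-cell, were annealed to 100 nM quencher-labelled ATP aptamer, and were imaged in selection buffer, then after 15 min with 500 uM ATP at 22 °C. Five cycles ran with NaOH stripping and re-annealing between them, and clusters outside 100-1000 RFU were excluded.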
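Also: ATP exposure 15 min at 22 °C before imaging.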

| Sequence | switch fluorescence ratio |
| --- | --- |
| CGACATAGTA | 1 |
| CGCTAGTGAG | 1.05 |
| CGGTTGCGCT | 0.987 |
| GACGAGCGTG | 0.987 |
| CTGCTAGTTA | 0.997 |
| GGCCGATAGG | 1.06 |
| TCTAGGCATG | 0.999 |
| TTTATTGCTT | 0.961 |
| ACCGTTGATG | 0.95 |
| ACAGAGGAGA | 1.02 |
| GATCGGGACG | 1.05 |
| AAACTGCCAG | 1.05 |
| TTAGGGGTG | 1.01 |
| CCATGCTGGC | 1.09 |
| CCATTTGTTC | 0.98 |
| GTGTTGTGTT | 0.998 |
| AACGGGCATT | 1.04 |
| GTCTGATGTG | 1 |
| CTAATGAGTA | 0.986 |
| TCAGGGAGCT | 1.04 |
| GATATAAGTG | 1.04 |
| ATTCGAAAGA | 1.02 |
| TGCTCCAGGT | 1.87 |
| AAAAACCTAG | 1.05 |
| TCGTTCGCTT | 1.79 |
| AGACAGCTGC | 1.18 |

| Sequence | switch fluorescence ratio |
| --- | --- |
| GGGAAGCTGG | 1.12 |
| GACGGGAGCA | 1.17 |
| AAGATCTCA | 0.966 |
| GGGATAACGA | 1.01 |
| ATAAGGTTAT | 0.957 |
| GAATGACGCC | 0.99 |
| TACCAACTAG | 1.11 |
| AAGGACTTTT | 1.01 |
| AGCATACCAT | 1.06 |
| GTTAGGTAAG | 1.24 |
| GGTAGGTGAT | 1 |
| CTTGAAATGT | 1.02 |
| TCGCAGGTTT | 1.09 |
| GACTCAGATC | 1.07 |
| ATGCCCTGGG | 0.981 |
| GTGAGCTCTG | 0.945 |
| ATTGGTGGCC | 0.976 |
| CTAACTTAGC | 1.03 |
| GGTTATACGC | 1.02 |
| CGGTAATTAA | 1.01 |
| AGATGAAATG | 1.02 |
| CGTTCACACG | 0.993 |
| CAAGGGAGC | 1 |
| TTCTGGCAAC | 1.15 |
| TTGAGGAGAA | 0.955 |
| GTGTGGAAAC | 0.992 |

| Sequence | switch fluorescence ratio |
| --- | --- |
| TACTCGTTTT | 1.04 |
| TTCTGTGGCT | 1.02 |
| CATACAGGCG | 1.07 |
| GGCGGAAATA | 1.01 |
| CTAGTCGGCG | 0.953 |
| ACCAGTCTAC | 1.03 |
| AGGAGTCGG | 0.941 |
| GGCGCACTTA | 0.972 |
| GATGATATTA | 1 |
| GCTAGCCTG | 0.967 |
| ATTCATATTA | 1.02 |
| CTTTAAAGGC | 1.06 |
| TAAGAGCTCC | 1.01 |
| ACCCAAAGAT | 1.06 |
| AAGTCCATGG | 0.998 |
| AAGTATCCCT | 1.01 |
| TATCTGAGCG | 0.986 |
| ATCGACTCAT | 1.03 |
| AAACGTTGTG | 1 |
| GCGGACGGGG | 0.996 |
| GTTGGATTGT | 0.986 |
| GCTTTTTTAT | 1.03 |
| CCGAGAGCCT | 1.98 |
| TAAGCCTCTC | 1 |
| TCTTGTGAGA | 0.997 |
| GAGATCTTCA | 1.03 |

| Sequence | switch fluorescence ratio |
| --- | --- |
| TAGTTAGGCT | 0.944 |
| GGGAGACCGT | 1.03 |
| TTGCACTCAT | 1.04 |
| GTATAAAAGG | 0.968 |
| GGGGCAATTG | 0.97 |
| CATAAACGTC | 1.02 |
| GTTTGAGTAG | 0.961 |
| TGCTCTCCGG | 1.19 |
| TCTCGAGTCA | 0.971 |
| GCCACCGGA | 0.956 |
| CATAAGCGGA | 1.02 |
| CTTATTACTA | 1.02 |
| GTTGGGAGCT | 0.997 |
| CAATAGAGGA | 1 |
| AGAGCACTG | 1.13 |
| GTTACTCGGG | 0.966 |
| ATCGCGCGAA | 0.939 |
| TATCCTCGG | 1.07 |
| TGCAGGTGTT | 1.47 |
| ATTTTAAATC | 1.02 |
| GTCAGAAATA | 0.996 |
| GACCCCACTA | 1.21 |
| TGGCCTCCAT | 0.985 |
| AACGGAGTTT | 0.979 |
| TTTAATAT | 0.962 |
| AATGGTAAGT | 0.994 |

| Sequence | switch fluorescence ratio |
| --- | --- |
| GAATTCATGT | 0.999 |
| GGAACAGCTG | 1.01 |
| ATTTAGCTGC | 1.03 |
| GAGTCAGGCG | 0.975 |
| ACGGGCTCTC | 0.977 |
| CTAATTTACC | 1.07 |
| CATCATTGAG | 1.01 |
| TTTTTGCCG | 1.06 |
| TATTTTAATA | 1.01 |
| CATCGGCCG | 0.962 |
| ACTAGACGGA | 1.06 |
| CCGCGCTATG | 2.5 |
| CAAGCGAGGG | 1.02 |
| GACCCGATCA | 1.04 |
| CACAATAAGT | 1.03 |
| GGTAACTTAT | 0.985 |
| GACTCTGCGG | 1.17 |
| ACATTTGACC | 0.989 |
| GCAACCTTAG | 1.17 |
| TAAGAAGGT | 1 |
| GGGGCTCAAG | 1.01 |
| TAAGACTCA | 1.04 |
| TTATATGACT | 1.04 |
| AACCAAAGCT | 1.27 |
| GACCGATGAA | 1.04 |
| CGTATACAA | 1.03 |

| Sequence | switch fluorescence ratio |
| --- | --- |
| ACAATTGCAG | 1.01 |
| ATCTGTCGAT | 1.01 |
| TTCCGATGGG | 1.11 |
| ATGGTGTCT | 1.07 |
| TTGCGATCCA | 1.03 |
| TCGGCCGCCG | 1.02 |
| ATTATATAAA | 0.98 |
| TGCATCAGTA | 0.99 |
| GCCGTCATTG | 0.981 |
| GGCGTTAGTA | 1.03 |
| TACATGGGAG | 0.974 |
| GATAATATGT | 1 |
| CGGTAACCAC | 1.04 |
| TCGATACTAT | 1.01 |
| GTGTTGTGAT | 0.95 |
| GGGAAGCTAG | 0.944 |
| TATCGCCGGC | 1.02 |
| CGCTGCGGGA | 1.08 |
| TGCATGTT | 0.983 |
| ATGGAGAAAC | 0.999 |
| GACTCCGAGG | 1.16 |
| TTAAATGCAT | 1 |
| TCTCGGCTTG | 0.986 |
| AATACTTAAG | 0.983 |
| AGTACTGCGC | 1.03 |
| CCAGAATTTT | 1.02 |

| Sequence | switch fluorescence ratio |
| --- | --- |
| ATAAGTATTT | 0.987 |
| ATTGTAAGG | 0.981 |
| GAGACCTCGC | 1.03 |
| AATGATAGTC | 1.02 |
| GCGTTAAGG | 0.988 |
| GGCTCATCTG | 0.971 |
| ACCGAAAGTG | 0.99 |
| TCCCGAGGCT | 1.25 |
| ACCGAGAACG | 1.18 |
| TCGTCAAA | 1.03 |
| CACGGTGGTG | 0.988 |
| GGGTTGGATC | 0.977 |
| CGGTCAGCTA | 1.06 |
| TGGTTTCGGA | 1.04 |
| AAGTTGTGTG | 1.01 |
| TGTGGCTTAT | 0.969 |
| GGGCCAAACC | 0.95 |
| TCAGTTGGAG | 0.972 |
| GCGAAGGGGA | 1.08 |
| GTCAAATGCG | 1.06 |
| CTTCACAGCG | 1.02 |
| CGGGTTCACG | 1.01 |
| ATGCATATAC | 3.47 |
| GAAGACGGGG | 0.983 |
| CGGATACGGA | 0.962 |
| TTACGTTACC | 1.66 |

| Sequence | switch fluorescence ratio |
| --- | --- |
| ATCTACTTAT | 1.04 |
| TAGGTACTTA | 0.986 |
| GAGCGGATCG | 1.01 |
| GTCCGGAATG | 2.54 |
| GAATTCAAC | 1.05 |
| TCCGACCCA | 2.41 |
| AATACCGACC | 2.31 |
| CAACATCAG | 1.02 |
| TTCCCTGGTC | 1.58 |
| GAGGGCCCAC | 1.02 |
| ATGATTGATA | 1.02 |
| ACTAGGCAAA | 1.14 |
| CTGCTATCGT | 1.03 |
| AGCAGTTGTT | 1 |
| GACCGGGCTA | 1.01 |
| CTTCAGAGAG | 1.01 |
| TATGCGTC | 1.01 |
| AAACAGAGGG | 1.02 |
| TCCAACAGGG | 1.03 |
